# Experimental data: PubChem BioAssay AID902 (National Center for Advancing Translational Sciences (NCATS), 2007)
# The whole screen tested about 130,000 compounds, of which about 1,900 (1.5%) were called active. The inconclusive results got no clear call from the source; some entries with a clear call stand among them for comparison. The call rests on the fitted dose curve; in most records, active means well fitted cell-killing curve with a large enough effect; inconclusive means small, poorly fitted or top-dose-only effect; inactive means no such curve, though single readings can be large or run the other way. Potencies of inconclusive entries are doubtful fits and often do not repeat.
# Test: qHTS Screen for Compounds that Selectively Target Cancer Cells with p53 Mutations: Cytotoxicity of p53ts Cells at the Nonpermissive Temperature; further: nearly all actives have a fitted effect of over 55% in size
# Settings: H1299-p53A138V viability at 39C, ATP luminescence, 24 h; series mostly up to 46.1 µM
# Potency means the concentration at half of the fitted maximal effect; tags describe the fitted curve by direction and shape.
row,SMILES,Potency
1,CCS(=O)(=O)c1ncc(Cl)c(C(=O)N(Cc2ccccc2)Cc2ccco2)n1,active: 3.98 µM
2,N/C(=N\OC(=O)c1ccc(Cl)cc1)c1ccc(Cl)cc1,inactive
3,CCc1ccc(NC(=O)c2cnn(-c3c(C)cccc3C)c2C2CCNCC2)cc1,"inconclusive: 0.631 µM [cytotoxic, partial curve, poor fit]"
4,Cc1ccc(-n2c(SCC(=O)Nc3cc(C)on3)nc3c(c2=O)SC(C)C3)cc1 (stereo not given),"inconclusive: 15.8 µM [cytotoxic, single point]"
5,O=C(c1ccc(Cl)s1)N1CCc2ccccc21,"inconclusive: 15.8 µM [cytotoxic, single point]"
6,COC(=O)c1cc(NC(=O)Cn2ncc3c2-c2ccccc2OC3)cc(C(=O)OC)c1,"inconclusive: 0.01 µM [cytotoxic, full curve, poor fit]"
7,N#Cc1c(C(F)(F)F)cc(-c2cccs2)nc1SCC(=O)Nc1ccc(Cl)cc1,"inconclusive: 20 µM [cytotoxic, single point]"
8,CCN1C(=O)c2cccc3c(S(=O)(=O)Nc4ccccn4)ccc1c23,inactive
9,CCc1cccc(NC(=O)c2nc(-c3ccncc3)no2)c1,"inconclusive: 31.6 µM [cytotoxic, single point]"
10,COc1ccc(OC2C=CC(C#Cc3ccc(C(C)(C)C)cc3)OC2CO)cc1 (stereo not given),"inconclusive: 3.16 µM [cytotoxic, single point]"
11,O=c1c(CCc2ccccc2)nc2cnc(N3CCNCC3)nc2n1CCc1ccccc1,active: 10 µM
12,CC(=O)OCC1OC(C#Cc2ccc(F)cc2F)C=CC1OC(C)=O (stereo not given),"inconclusive: 5.01 µM [cytotoxic, single point]"
13,Cc1ncc(COC(=O)C(C)C)c2cc(C(=O)Nc3ccccc3C(F)(F)F)c(=O)oc12,inactive
14,CCN(CC)C(=O)c1sc2nc(-c3ccncc3)[nH]c(=O)c2c1C,inactive
15,CCn1ccc2cc(S(=O)(=O)N3CCC(C(=O)NCCOC)CC3)ccc21,inactive
16,Cc1ccc(NC(=O)Cn2c(=O)c(C(F)(F)F)nc3ccccc32)c(C)c1,inactive
17,Cc1ccc2c(CC(=O)Nc3c(C(=O)Nc4cccc(Cl)c4)oc4ccccc34)coc2c1C,"inconclusive: 2.51 µM [cytotoxic, partial curve]"
18,CCOC(=O)c1sc(NC(=O)c2ccc(Br)o2)cc1C,"inconclusive: 3.98 µM [cytotoxic, partial curve]"
19,Cc1cc(C)c2oc(-c3cccc(NC(=O)c4cc5ccccc5o4)c3)nc2c1,inactive
20,Cc1ccc(Nc2cc(C(=O)NC3CCCC3)c3ccccc3n2)c(C)c1,"inconclusive: 25.1 µM [cytotoxic, single point]"
21,Cc1ccc(Cl)cc1Nc1sc(C(=O)c2ccccc2)c(N)c1S(=O)(=O)c1ccccc1,"inconclusive: 31.6 µM [cytotoxic, partial curve, poor fit]"
22,COc1cccc(CN2CCCN(Cc3ccc(F)cc3)S2(=O)=O)c1,inactive
23,COc1ccc2c(c1OC)C(=O)N(c1ccccn1)C2,"inconclusive: 10 µM [cytotoxic, single point]"

row,SMILES,Potency
1,COc1cccc(CNC(=O)c2cc3cc(C)ccc3n2C)c1,"inconclusive: 0.251 µM [cytotoxic, full curve, poor fit]"
2,CCCCC(CC)CNC(=O)c1ccc(Cn2c(=O)[nH]c3cc(OC)c(OC)cc3c2=O)cc1 (stereo not given),active: 3.98 µM
3,Cc1ccc(NS(=O)(=O)c2ccc(C3CCCCC3)cc2)cc1,"inconclusive: 22.4 µM [cytotoxic, single point]"
4,COc1ccc(-c2nn(C)c3sc(C(=O)Nc4cc(OC)c(OC)c(OC)c4)cc23)cc1OC,inactive
5,COc1ccc(C(=O)NC(=S)NNC(=O)c2cnccn2)cc1,"inconclusive: 31.6 µM [cytotoxic, single point]"
6,O=C(NC1=NCCS1)c1cc2ccccc2o1,active: 5.01 µM
7,COCCn1c(SCc2ccccc2F)nc2c([nH]c3ccccc32)c1=O,"inconclusive: 12.6 µM [cytotoxic, partial curve, poor fit]"
8,O=C1C(c2ccncc2)=C(O)c2ccccc21,active: 6.31 µM
9,CCc1ccc(N2CC(C)Cn3c2nc2c3c(=O)n(CC(=O)O)c(=O)n2C)cc1 (stereo not given),inactive
10,CCOC(=O)CN(Cc1ccccc1)C(C(=O)NC1CCCCC1)c1ccccc1 (stereo not given),active: 2.51 µM
11,CCOC(=O)CNC(=O)CSc1ncnc2c1nnn2-c1ccc(F)cc1,"inconclusive: 31.6 µM [cytotoxic, single point]"
12,COc1ccc(-c2ccc(CCC(=O)O)n2-c2ccccc2C(F)(F)F)cc1,"inconclusive: 12.6 µM [cytotoxic, single point]"
13,O=C(CCc1nc(-c2ccccc2F)no1)NC1CCCCCC1,"inconclusive: 31.6 µM [cytotoxic, single point]"
14,NC(=O)CSc1ncc2c(n1)-c1ccccc1N(Cc1ccc(Cl)cc1)S2(=O)=O,inactive
15,O=C(Nc1noc2ccccc12)c1ccc(F)cc1,"inconclusive: 12.6 µM [cytotoxic, partial curve, poor fit]"
16,Cc1ccc(C)c(N2CCN(CCCNC(=O)c3ccc4nc(N5CCCCC5)sc4c3)CC2)c1,"inconclusive: 25.1 µM [cytotoxic, partial curve, poor fit]"
17,Cn1c(=O)c2cc(NC(=O)c3ccccc3Cl)c(=O)oc2n(C)c1=O,inactive
18,Cc1nn(CC(=O)Nc2cc(F)ccc2F)c(=O)c2cccn12,"inconclusive: 12.6 µM [cytotoxic, partial curve]"
19,O=C(NCc1ccc2c(c1)CCN2C(=O)c1ccc(F)cc1)c1ccco1,inactive
20,CO/N=C(\C(=O)N[C@@H]1C(=O)N2C(C(=O)O)=C(CSc3nc(=O)c(O)nn3C)CS[C@@H]12)c1csc(N)n1,inactive
21,O=C(Nc1ccc2nc3n(c(=O)c2c1)CCCCC3)c1ccccn1,"inconclusive: 12.6 µM [cytotoxic, partial curve]"
22,Cc1oc(-c2cccc(Cl)c2)nc1CN1CCCC(C(=O)N2CCN(c3ccc(F)cc3)CC2)C1 (stereo not given),"inconclusive: 12.6 µM [cytotoxic, single point]"
